B1: glmS ribozyme (parent)
chain: AUAAAAGCGCCAGAACUACAGAAAUGUAGUUGACGAGGAGGAGGUUUAUCGAAUUUUCGGCGGAUGCCUCCAAA

Holding throughout (settings): with glucosamine-6-phosphate
In series [1] the parent is B1. In words: self-cleavage kobs at 40 uM GlcN6P; higher = faster cleavage; RNA array. Summed up: (§1)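 kobs was derived by fitting per-tile medians to one- or two-exponential decays after normalising signals to baseline and to non-cleaving reference variants. Those signals came from barcoded ribozyme variants transcribed in situ by E. coli RNA polymerase on sequenced MiSeq chips, followed through a hybridised Cy3 probe at 37 °C and imaged over ~14 h. Glucosamine-6-phosphate (40 μM to 10 mM) in HEPES/KCl/Mg(OAc)2 buffer was flowed in. Weighted Michaelis–Menten fits across concentrations then gave kcat and KM.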

Series [2] covers variants of B1. The series is described as follows: self-cleavage kobs at 10000 uM GlcN6P; higher = faster cleavage; RNA array. The procedure, abridged:
as §1

In series [3] the parent is B1. In words: self-cleavage kobs at 640 uM GlcN6P; higher = faster cleavage; RNA array. The procedure, abridged: as §1
Series [4] covers variants of B1. In words: self-cleavage kobs at 160 uM GlcN6P; higher = faster cleavage; RNA array. The procedure, abridged: as §1
Series [5] covers variants of B1. In words: self-cleavage kobs at 2500 uM GlcN6P; higher = faster cleavage; RNA array. The procedure, abridged:
as §1

The values below come from the supplement of paper PMC7125110.

± gives the standard error. This sample is rich in variants without activity. A value given as a limit tells only on which side of the number the result lay.

As for C11U G35U G37C U57C, in the series with glucosamine-6-phosphate [1], the “self-cleavage kobs at 40 uM GlcN6P” value is < 1e-05 s⁻¹.
Regarding A12C U31A G38U U45G, the “self-cleavage kobs at 40 uM GlcN6P” value in the series with glucosamine-6-phosphate [1] was < 1e-05 s⁻¹. Further, in the series with glucosamine-6-phosphate [2], the “self-cleavage kobs at 10000 uM GlcN6P” value was < 1e-05 s⁻¹.
Take C11G U30G G40U A42U U57C: the “self-cleavage kobs at 40 uM GlcN6P” value in the series with glucosamine-6-phosphate [1] is < 1e-05 s⁻¹. Besides, in the series with glucosamine-6-phosphate [2], the “self-cleavage kobs at 10000 uM GlcN6P” value is < 1e-05 s⁻¹.
A12G U31A G35U G40U G44A: the “self-cleavage kobs at 40 uM GlcN6P” value in the series with glucosamine-6-phosphate [1] was < 1e-05 s⁻¹. In addition, in the series with glucosamine-6-phosphate [2], the “self-cleavage kobs at 10000 uM GlcN6P” value is < 1e-05 s⁻¹.
As for C11U U31C G38U G41U, in the series with glucosamine-6-phosphate [1], the “self-cleavage kobs at 40 uM GlcN6P” value is < 1e-05 s⁻¹. The “self-cleavage kobs at 10000 uM GlcN6P” value with glucosamine-6-phosphate [2] is < 1e-05 s⁻¹.
Take A12C A42G C70A: the “self-cleavage kobs at 40 uM GlcN6P” value with glucosamine-6-phosphate [1] is < 1e-05 s⁻¹. For the same variant, the “self-cleavage kobs at 10000 uM GlcN6P” value with glucosamine-6-phosphate [2] amounted to 2.91e-05 ± 1.2e-05 s⁻¹.
Consider C11G G29A G37U U57C C58U G60C, for which the “self-cleavage kobs at 40 uM GlcN6P” value in the series with glucosamine-6-phosphate [1] was < 1e-05 s⁻¹.
In the case of A12U G62C, the “self-cleavage kobs at 40 uM GlcN6P” value with glucosamine-6-phosphate [1] was < 1e-05 s⁻¹. In the series with glucosamine-6-phosphate [3], the “self-cleavage kobs at 640 uM GlcN6P” value is < 1e-05 s⁻¹. Also, the “self-cleavage kobs at 160 uM GlcN6P” value in the series with glucosamine-6-phosphate [4] is < 1e-05 s⁻¹. The “self-cleavage kobs at 2500 uM GlcN6P” value with glucosamine-6-phosphate [5] is < 1e-05 s⁻¹. For the same variant, the “self-cleavage kobs at 10000 uM GlcN6P” value with glucosamine-6-phosphate [2] was < 1e-05 s⁻¹.
Regarding C11G G35U, the “self-cleavage kobs at 40 uM GlcN6P” value with glucosamine-6-phosphate [1] is < 1e-05 s⁻¹. For the same variant, the “self-cleavage kobs at 640 uM GlcN6P” value in the series with glucosamine-6-phosphate [3] is < 1e-05 s⁻¹. For the same variant, the “self-cleavage kobs at 160 uM GlcN6P” value with glucosamine-6-phosphate [4] is < 1e-05 s⁻¹. Besides, in the series with glucosamine-6-phosphate [2], the “self-cleavage kobs at 10000 uM GlcN6P” value was < 1e-05 s⁻¹.
In the case of C11G G35C, the “self-cleavage kobs at 40 uM GlcN6P” value with glucosamine-6-phosphate [1] is < 1e-05 s⁻¹. Besides, the “self-cleavage kobs at 640 uM GlcN6P” value with glucosamine-6-phosphate [3] is < 1e-05 s⁻¹. In the series with glucosamine-6-phosphate [4], the “self-cleavage kobs at 160 uM GlcN6P” value is < 1e-05 s⁻¹.
For G13C A48U C70G, in the series with glucosamine-6-phosphate [1], the “self-cleavage kobs at 40 uM GlcN6P” value is < 1e-05 s⁻¹.
Regarding G13C A48U C70U, the “self-cleavage kobs at 40 uM GlcN6P” value with glucosamine-6-phosphate [1] is < 1e-05 s⁻¹. For the same variant, the “self-cleavage kobs at 640 uM GlcN6P” value with glucosamine-6-phosphate [3] is < 1e-05 s⁻¹. For the same variant, the “self-cleavage kobs at 10000 uM GlcN6P” value with glucosamine-6-phosphate [2] was < 1e-05 s⁻¹.
With A12U G41C G43U, the “self-cleavage kobs at 40 uM GlcN6P” value in the series with glucosamine-6-phosphate [1] was < 1e-05 s⁻¹.
On to A12U G13U G35A G62A C71G, for which, in the series with glucosamine-6-phosphate [1], the “self-cleavage kobs at 40 uM GlcN6P” value is < 1e-05 s⁻¹. Moreover, in the series with glucosamine-6-phosphate [2], the “self-cleavage kobs at 10000 uM GlcN6P” value was < 1e-05 s⁻¹.
G13A G32U A36U: the “self-cleavage kobs at 40 uM GlcN6P” value with glucosamine-6-phosphate [1] was < 1e-05 s⁻¹. Also, in the series with glucosamine-6-phosphate [2], the “self-cleavage kobs at 10000 uM GlcN6P” value was < 1e-05 s⁻¹.
For G13A C34U A36U, the “self-cleavage kobs at 40 uM GlcN6P” value in the series with glucosamine-6-phosphate [1] was < 1e-05 s⁻¹. The “self-cleavage kobs at 10000 uM GlcN6P” value with glucosamine-6-phosphate [2] is < 1e-05 s⁻¹.
On to A12G C16A A36G U69C, for which, in the series with glucosamine-6-phosphate [1], the “self-cleavage kobs at 40 uM GlcN6P” value was < 1e-05 s⁻¹.
Turning to C11G G41U, in the series with glucosamine-6-phosphate [1], the “self-cleavage kobs at 40 uM GlcN6P” value was < 1e-05 s⁻¹. Further, in the series with glucosamine-6-phosphate [3], the “self-cleavage kobs at 640 uM GlcN6P” value is < 1e-05 s⁻¹. In the series with glucosamine-6-phosphate [4], the “self-cleavage kobs at 160 uM GlcN6P” value was < 1e-05 s⁻¹. Also, the “self-cleavage kobs at 2500 uM GlcN6P” value in the series with glucosamine-6-phosphate [5] was < 1e-05 s⁻¹. For the same variant, the “self-cleavage kobs at 10000 uM GlcN6P” value in the series with glucosamine-6-phosphate [2] is < 1e-05 s⁻¹.
C11G G35C G37C: the “self-cleavage kobs at 40 uM GlcN6P” value in the series with glucosamine-6-phosphate [1] is < 1e-05 s⁻¹. The “self-cleavage kobs at 160 uM GlcN6P” value with glucosamine-6-phosphate [4] is < 1e-05 s⁻¹.
With A12C A42U C68A, the “self-cleavage kobs at 40 uM GlcN6P” value with glucosamine-6-phosphate [1] is < 1e-05 s⁻¹. In the series with glucosamine-6-phosphate [5], the “self-cleavage kobs at 2500 uM GlcN6P” value was < 1e-05 s⁻¹. For the same variant, in the series with glucosamine-6-phosphate [2], the “self-cleavage kobs at 10000 uM GlcN6P” value was < 1e-05 s⁻¹.
For the variant C11G A39U C50G, in the series with glucosamine-6-phosphate [1], the “self-cleavage kobs at 40 uM GlcN6P” value was < 1e-05 s⁻¹. Also, in the series with glucosamine-6-phosphate [3], the “self-cleavage kobs at 640 uM GlcN6P” value is < 1e-05 s⁻¹. Further, the “self-cleavage kobs at 160 uM GlcN6P” value with glucosamine-6-phosphate [4] was < 1e-05 s⁻¹. For the same variant, the “self-cleavage kobs at 2500 uM GlcN6P” value with glucosamine-6-phosphate [5] is < 1e-05 s⁻¹. Besides, the “self-cleavage kobs at 10000 uM GlcN6P” value with glucosamine-6-phosphate [2] was < 1e-05 s⁻¹.
Regarding C11U A14G U31G G62A, the “self-cleavage kobs at 40 uM GlcN6P” value in the series with glucosamine-6-phosphate [1] is < 1e-05 s⁻¹. Moreover, the “self-cleavage kobs at 10000 uM GlcN6P” value with glucosamine-6-phosphate [2] was < 1e-05 s⁻¹.
Take C11G G38C G41A G44C U47G G66U C70U: the “self-cleavage kobs at 40 uM GlcN6P” value in the series with glucosamine-6-phosphate [1] is < 1e-05 s⁻¹.
With A12C U46C G60A, the “self-cleavage kobs at 40 uM GlcN6P” value with glucosamine-6-phosphate [1] was < 1e-05 s⁻¹. For the same variant, the “self-cleavage kobs at 2500 uM GlcN6P” value with glucosamine-6-phosphate [5] was < 1e-05 s⁻¹.
As to C11U A52U, in the series with glucosamine-6-phosphate [1], the “self-cleavage kobs at 40 uM GlcN6P” value was < 1e-05 s⁻¹.
G13A U47C: the “self-cleavage kobs at 40 uM GlcN6P” value in the series with glucosamine-6-phosphate [1] was < 1e-05 s⁻¹. In addition, the “self-cleavage kobs at 10000 uM GlcN6P” value in the series with glucosamine-6-phosphate [2] was determined as 4.92e-05 ± 1.1e-05 s⁻¹.
Regarding C11U A36G C50G, in the series with glucosamine-6-phosphate [1], the “self-cleavage kobs at 40 uM GlcN6P” value worked out at 8.31e-05 ± 2.8e-05 s⁻¹. Further, the “self-cleavage kobs at 640 uM GlcN6P” value in the series with glucosamine-6-phosphate [3] came to 0.000352 ± 0.00014 s⁻¹. In the series with glucosamine-6-phosphate [2], the “self-cleavage kobs at 10000 uM GlcN6P” value is 4.94e-05 ± 1.5e-05 s⁻¹.
